Results published in a compilation of properties of binary mixtures (doi:10.1007/s10953-007-9135-4).
Some of these densities may be calculated back from excess volumes.

Experiment: xn = mol fraction of the nth substance listed

CCCCCCCCn1cc[n+](C)c1.COCCOCCOS(=O)(=O)[O-] + CO
mass density [kg/m3], 101 kPa
Conditions	x2 = 0.11	x2 = 0.307	x2 = 0.447	x2 = 0.608	x2 = 0.803	x2 = 0.909
298.15 K	1112.3	1102.2	1091	–	1018.2	947.1
303.15 K	1108.7	1098.6	1087.4	1067.2	1014.3	943.1
315.15 K	1101.9	1091.8	1080.5	–	1006.6	935

CCCC[n+]1ccn(C)c1.COCCOCCOS(=O)(=O)[O-] + CO
mass density [kg/m3], 101.3 kPa
Conditions	298.15 K	303.15 K	313.15 K
x2 = 0.055	1187.3	1187.3	1176.7
x2 = 0.093	1182	1181.4	1174.4
x2 = 0.136	1182.1	1178.5	1171.5
x2 = 0.199	1177.4	1173.8	1166.9
x2 = 0.265	1171.8	1168.2	1161.4
x2 = 0.335	1165.1	1161.5	1154.6
x2 = 0.388	1159.2	1155.6	–
x2 = 0.481	1146.7	1143.1	1136.1
x2 = 0.533	1138.1	–	1127.5
x2 = 0.649	–	1108.8	1101.8
x2 = 0.711	1092.9	1089.1	1081.8
x2 = 0.775	1066.1	1062.2	1054.9
x2 = 0.877	997.2	–	985.6
x2 = 0.91	–	955.1	–
x2 = 0.912	959.3	–	946.9
x2 = 0.951	902.7	–	890.1
x2 = 0.979	843.8	839.4	830.3

CCn1cc[n+](C)c1.COCCOCCOS(=O)(=O)[O-] + CO
mass density [kg/m3], 101.3 kPa
Conditions	298.15 K	303.15 K	315.15 K
x1 = 0.017	833.7	829.2	820.2
x2 = 0.038	1233.7	1222.9	–
x2 = 0.103	1228.8	1217.9	1217.9
x2 = 0.189	1221.3	–	1210.4
x2 = 0.238	1216.7	–	1205.8
x2 = 0.373	1200.9	1190	1190
x2 = 0.439	1190.7	1179.6	1179.6
x2 = 0.53	1173.3	–	–
x2 = 0.641	1144	1132.7	1132.7
x2 = 0.747	1101.6	–	1089.8
x2 = 0.804	1068.7	1064.6	1056.8
x2 = 0.857	1027.7	–	1015.5
x2 = 0.899	983.3	979	970.8
x2 = 0.931	938.6	934.2	925.8
x2 = 0.963	881.9	877.4	–

CCn1cc[n+](C)c1.COCCOCCOS(=O)(=O)[O-] + O
mass density [kg/m3], 101.3 kPa
Conditions	298.15 K	303.15 K	315.15 K
x2 = 0.111	1234.4	1230.6	1223.7
x2 = 0.17	1233.2	–	1222.6
x2 = 0.259	1231.2	1227.5	1220.6
x2 = 0.351	1228.6	1224.9	–
x2 = 0.41	1226.6	–	1216
x2 = 0.485	1223.4	1219.8	1212.8
x2 = 0.564	1219.1	1215.4	–
x2 = 0.65	1212.5	1208.8	1201.7
x2 = 0.733	1202.8	1199	1191.9
x2 = 0.787	1193	1189.1	1182
x2 = 0.84	1178.6	1174.8	1167.7
x2 = 0.906	1146.3	1142.8	1136
x2 = 0.916	1138.8	1135.4	1128.7
x2 = 0.95	–	1100.8	1094.7
x2 = 0.978	1056	1053.7	1049
